Results are given in words; binding and its absence hold for the method and conditions named. In cells and extracts the contact can be indirect. Some binding calls cover weakened binding; strength is not graded here. Sequences can lack the tags named with a protein.

Sequences of proteins named here, by UniProt entry; tags and fusion partners are left off.
UniProt Q96CV9: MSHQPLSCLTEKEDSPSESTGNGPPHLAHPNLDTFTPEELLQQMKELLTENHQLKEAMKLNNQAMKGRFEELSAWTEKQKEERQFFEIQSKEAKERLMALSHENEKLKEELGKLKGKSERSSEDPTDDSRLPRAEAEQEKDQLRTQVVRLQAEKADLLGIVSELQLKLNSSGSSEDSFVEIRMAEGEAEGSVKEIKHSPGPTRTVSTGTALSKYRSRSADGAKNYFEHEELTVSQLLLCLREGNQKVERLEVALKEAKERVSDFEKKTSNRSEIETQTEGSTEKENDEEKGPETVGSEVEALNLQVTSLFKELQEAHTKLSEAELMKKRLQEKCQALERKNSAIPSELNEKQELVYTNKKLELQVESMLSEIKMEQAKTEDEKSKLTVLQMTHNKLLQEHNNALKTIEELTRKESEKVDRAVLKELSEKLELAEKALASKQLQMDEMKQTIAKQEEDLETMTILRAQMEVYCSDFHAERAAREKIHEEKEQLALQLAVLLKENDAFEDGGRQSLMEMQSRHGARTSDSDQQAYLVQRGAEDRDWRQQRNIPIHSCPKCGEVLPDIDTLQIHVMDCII

Assay in all cases: FRET or BRET; LuTHy-BRET in live HEK293 cells, 48 h after transfection; optineurin or TANK as NanoLuc donors, TBK1 and mutants as mCitrine-Protein A acceptors; donor saturation assays (increasing acceptor plasmid, constant donor) and single-point assays (acceptor in excess); positive if corrected BRET ratio >= 0.01
A general note: BRET reads energy transfer from a luciferase to a nearby fluorophore.

Test [1] has as its target optineurin, NanoLuc-tagged (UniProt Q96CV9).
Test [2] has as its target T1, TRAF family member-associated NF-kB activator (TANK), NanoLuc-tagged (UniProt Q92844).
T1 sequence: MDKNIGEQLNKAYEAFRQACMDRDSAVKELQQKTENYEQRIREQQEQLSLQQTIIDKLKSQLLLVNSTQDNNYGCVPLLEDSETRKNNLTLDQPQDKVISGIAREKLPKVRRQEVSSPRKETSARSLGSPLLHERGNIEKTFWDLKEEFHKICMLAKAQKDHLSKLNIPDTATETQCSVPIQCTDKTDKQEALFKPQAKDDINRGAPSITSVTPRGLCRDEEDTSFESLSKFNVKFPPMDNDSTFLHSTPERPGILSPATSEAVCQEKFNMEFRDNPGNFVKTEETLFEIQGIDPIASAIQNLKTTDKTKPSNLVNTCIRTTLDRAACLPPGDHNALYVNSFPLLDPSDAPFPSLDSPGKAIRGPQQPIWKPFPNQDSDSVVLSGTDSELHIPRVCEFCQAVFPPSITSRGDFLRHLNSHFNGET

The target of test [3] is optineurin, NanoLuc-tagged, Q96CV9. As to conditions: remark: other sources report otherwise.

B1: wildtype TBK1 (TANK-binding kinase 1), mCitrine-Protein A fusion (enzyme, UniProt Q9UHD2 1-729)
chain: MQSTSNHLWLLSDILGQGATANVFRGRHKKTGDLFAIKVFNNISFLRPVDVQMREFEVLKKLNHKNIVKLFAIEEETTTRHKVLIMEFCPCGSLYTVLEEPSNAYGLPESEFLIVLRDVVGGMNHLRENGIVHRDIKPGNIMRVIGEDGQSVYKLTDFGAARELEDDEQFVSLYGTEEYLHPDMYERAVLRKDHQKKYGATVDLWSIGVTFYHAATGSLPFRPFEGPRRNKEVMYKIITGKPSGAISGVQKAENGPIDWSGDMPVSCSLSRGLQVLLTPVLANILEADQEKCWGFDQFFAETSDILHRMVIHVFSLQQMTAHKIYIHSYNTATIFHELVYKQTKIISSNQELIYEGRRLVLEPGRLAQHFPKTTEENPIFVVSREPLNTIGLIYEKISLPKVHPRYDLDGDASMAKAITGVVCYACRIASTLLLYQELMRKGIRWLIELIKDDYNETVHKKTEVVITLDFCIRNIEKTVKVYEKLMKINLEAAELGEISDIHTKLLRLSSSQGTIETSLQDIDSRLSPGGSLADAWAHQEGTHPKDRNVEKLQVLLNCMTEIYYQFKKDKAERRLAYNEEQIHKFDKQKLYYHATKAMTHFTDECVKKYEAFLNKSEEWIRKMLHLRKQLLSLTNQCFDIEEEVSKYQEYTNELQETLPQKMFTASSGIKHTMTPIYPSSNTLVEMTLGMKKLKEEMEGVVKELAENNHILERFGSLTMDGGLRNVDCL
As for B1, the binding result in test [1] and in test [2] was “binds” in each case.

B2: TBK1 p.E696K variant, mCitrine-Protein A fusion (enzyme, UniProt Q9UHD2 1-729)
chain: MQSTSNHLWLLSDILGQGATANVFRGRHKKTGDLFAIKVFNNISFLRPVDVQMREFEVLKKLNHKNIVKLFAIEEETTTRHKVLIMEFCPCGSLYTVLEEPSNAYGLPESEFLIVLRDVVGGMNHLRENGIVHRDIKPGNIMRVIGEDGQSVYKLTDFGAARELEDDEQFVSLYGTEEYLHPDMYERAVLRKDHQKKYGATVDLWSIGVTFYHAATGSLPFRPFEGPRRNKEVMYKIITGKPSGAISGVQKAENGPIDWSGDMPVSCSLSRGLQVLLTPVLANILEADQEKCWGFDQFFAETSDILHRMVIHVFSLQQMTAHKIYIHSYNTATIFHELVYKQTKIISSNQELIYEGRRLVLEPGRLAQHFPKTTEENPIFVVSREPLNTIGLIYEKISLPKVHPRYDLDGDASMAKAITGVVCYACRIASTLLLYQELMRKGIRWLIELIKDDYNETVHKKTEVVITLDFCIRNIEKTVKVYEKLMKINLEAAELGEISDIHTKLLRLSSSQGTIETSLQDIDSRLSPGGSLADAWAHQEGTHPKDRNVEKLQVLLNCMTEIYYQFKKDKAERRLAYNEEQIHKFDKQKLYYHATKAMTHFTDECVKKYEAFLNKSEEWIRKMLHLRKQLLSLTNQCFDIEEEVSKYQEYTNELQETLPQKMFTASSGIKHTMTPIYPSSNTLVEMTLGMKKLKEKMEGVVKELAENNHILERFGSLTMDGGLRNVDCL
Consider B2, for which, in test [2], the binding result was “binds”.

B3: TBK1 R47H kinase domain mutant, mCitrine-Protein A fusion (enzyme, UniProt Q9UHD2 1-729)
chain: MQSTSNHLWLLSDILGQGATANVFRGRHKKTGDLFAIKVFNNISFLHPVDVQMREFEVLKKLNHKNIVKLFAIEEETTTRHKVLIMEFCPCGSLYTVLEEPSNAYGLPESEFLIVLRDVVGGMNHLRENGIVHRDIKPGNIMRVIGEDGQSVYKLTDFGAARELEDDEQFVSLYGTEEYLHPDMYERAVLRKDHQKKYGATVDLWSIGVTFYHAATGSLPFRPFEGPRRNKEVMYKIITGKPSGAISGVQKAENGPIDWSGDMPVSCSLSRGLQVLLTPVLANILEADQEKCWGFDQFFAETSDILHRMVIHVFSLQQMTAHKIYIHSYNTATIFHELVYKQTKIISSNQELIYEGRRLVLEPGRLAQHFPKTTEENPIFVVSREPLNTIGLIYEKISLPKVHPRYDLDGDASMAKAITGVVCYACRIASTLLLYQELMRKGIRWLIELIKDDYNETVHKKTEVVITLDFCIRNIEKTVKVYEKLMKINLEAAELGEISDIHTKLLRLSSSQGTIETSLQDIDSRLSPGGSLADAWAHQEGTHPKDRNVEKLQVLLNCMTEIYYQFKKDKAERRLAYNEEQIHKFDKQKLYYHATKAMTHFTDECVKKYEAFLNKSEEWIRKMLHLRKQLLSLTNQCFDIEEEVSKYQEYTNELQETLPQKMFTASSGIKHTMTPIYPSSNTLVEMTLGMKKLKEEMEGVVKELAENNHILERFGSLTMDGGLRNVDCL
Regarding B3, the binding entry in test [1] and in test [2] was “binds” each time.

B4: TBK1 p.E696K variant, mCitrine-Protein A fusion, Q9UHD2 1-729 (enzyme)
chain: MQSTSNHLWLLSDILGQGATANVFRGRHKKTGDLFAIKVFNNISFLRPVDVQMREFEVLKKLNHKNIVKLFAIEEETTTRHKVLIMEFCPCGSLYTVLEEPSNAYGLPESEFLIVLRDVVGGMNHLRENGIVHRDIKPGNIMRVIGEDGQSVYKLTDFGAARELEDDEQFVSLYGTEEYLHPDMYERAVLRKDHQKKYGATVDLWSIGVTFYHAATGSLPFRPFEGPRRNKEVMYKIITGKPSGAISGVQKAENGPIDWSGDMPVSCSLSRGLQVLLTPVLANILEADQEKCWGFDQFFAETSDILHRMVIHVFSLQQMTAHKIYIHSYNTATIFHELVYKQTKIISSNQELIYEGRRLVLEPGRLAQHFPKTTEENPIFVVSREPLNTIGLIYEKISLPKVHPRYDLDGDASMAKAITGVVCYACRIASTLLLYQELMRKGIRWLIELIKDDYNETVHKKTEVVITLDFCIRNIEKTVKVYEKLMKINLEAAELGEISDIHTKLLRLSSSQGTIETSLQDIDSRLSPGGSLADAWAHQEGTHPKDRNVEKLQVLLNCMTEIYYQFKKDKAERRLAYNEEQIHKFDKQKLYYHATKAMTHFTDECVKKYEAFLNKSEEWIRKMLHLRKQLLSLTNQCFDIEEEVSKYQEYTNELQETLPQKMFTASSGIKHTMTPIYPSSNTLVEMTLGMKKLKEKMEGVVKELAENNHILERFGSLTMDGGLRNVDCL
Consider B4, for which the binding entry in test [3] is “no binding”.

B5: TBK1 del689-714, mCitrine-Protein A fusion (enzyme, UniProt Q9UHD2)
chain: MQSTSNHLWLLSDILGQGATANVFRGRHKKTGDLFAIKVFNNISFLRPVDVQMREFEVLKKLNHKNIVKLFAIEEETTTRHKVLIMEFCPCGSLYTVLEEPSNAYGLPESEFLIVLRDVVGGMNHLRENGIVHRDIKPGNIMRVIGEDGQSVYKLTDFGAARELEDDEQFVSLYGTEEYLHPDMYERAVLRKDHQKKYGATVDLWSIGVTFYHAATGSLPFRPFEGPRRNKEVMYKIITGKPSGAISGVQKAENGPIDWSGDMPVSCSLSRGLQVLLTPVLANILEADQEKCWGFDQFFAETSDILHRMVIHVFSLQQMTAHKIYIHSYNTATIFHELVYKQTKIISSNQELIYEGRRLVLEPGRLAQHFPKTTEENPIFVVSREPLNTIGLIYEKISLPKVHPRYDLDGDASMAKAITGVVCYACRIASTLLLYQELMRKGIRWLIELIKDDYNETVHKKTEVVITLDFCIRNIEKTVKVYEKLMKINLEAAELGEISDIHTKLLRLSSSQGTIETSLQDIDSRLSPGGSLADAWAHQEGTHPKDRNVEKLQVLLNCMTEIYYQFKKDKAERRLAYNEEQIHKFDKQKLYYHATKAMTHFTDECVKKYEAFLNKSEEWIRKMLHLRKQLLSLTNQCFDIEEEVSKYQEYTNELQETLPQKMFTASSGIKHTMTPIYPSSNTLVEMTLGSLTMDGGLRNVDCL
Regarding B5, the binding result in test [1] and in test [2] was “no binding” each time.

Values taken from article PMC10959724.
